Reference: the supplement of paper PMC6746778
Counter-ions that a name gives are not always drawn. The list shows a part of the results. Many values rest on one well or one pass, so single values are uncertain.

Assays:
Experiment in all cases: proliferation Z-score within cell line (SRB, relative to all inhibitors screened on that line); triple-negative breast cancer lines and a kinase inhibitor library; SRB is the sulforhodamine B protein stain; higher = less growth inhibition (more resistant)
Conditions in all cases: concentration: 1 µM; 4 days
Bt20 = test system: Bt20
Bt549 = test system: Bt549
HCC1143 = test system: HCC1143
HCC1806 = test system: HCC1806
HCC1937 = test system: HCC1937
HCC38 = test system: HCC38
HCC70 = test system: HCC70
Hs578T = test system: Hs578T
MDA-MB-231 = test system: MDA-MB-231
MDA-MB-435s = test system: MDA-MB-435s
MDA-MB-436 = test system: MDA-MB-436
MDA-MB-453 = test system: MDA-MB-453
MDA-MB-468 = test system: MDA-MB-468
SKBR7 = test system: SKBR7
SUM1315MO2 = test system: SUM1315MO2
SUM149PT = test system: SUM149PT
SUM159PT = test system: SUM159PT
SUM185PE = test system: SUM185PE
SUM229PE = test system: SUM229PE
SUM52PE = test system: SUM52PE
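Note: Single-dose primary screen of a 378-member kinase inhibitor library in 96-well plates, with growth read as absorbance of protein-bound SRB dye after TCA fixation.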

Compound | proliferation Z-score within cell line (Bt20) | proliferation Z-score within cell line (Bt549) | proliferation Z-score within cell line (HCC1143) | proliferation Z-score within cell line (HCC1806) | proliferation Z-score within cell line (HCC1937) | proliferation Z-score within cell line (HCC38) | proliferation Z-score within cell line (HCC70) | proliferation Z-score within cell line (Hs578T) | proliferation Z-score within cell line (MDA-MB-231) | proliferation Z-score within cell line (MDA-MB-435s) | proliferation Z-score within cell line (MDA-MB-436) | proliferation Z-score within cell line (MDA-MB-453) | proliferation Z-score within cell line (MDA-MB-468) | proliferation Z-score within cell line (SKBR7) | proliferation Z-score within cell line (SUM1315MO2) | proliferation Z-score within cell line (SUM149PT) | proliferation Z-score within cell line (SUM159PT) | proliferation Z-score within cell line (SUM185PE) | proliferation Z-score within cell line (SUM229PE) | proliferation Z-score within cell line (SUM52PE)
CN1CCCN(C(=O)c2cccc(-c3ccc(/C=C4/C(=O)Nc5ccc(Cl)cc54)o3)c2)CC1 | -1.37 | 0.313 | 0.0471 | 0.562 | 0.206 | 0.506 | -0.0269 | 0.709 | -0.304 | -0.152 | -0.403 | 0.509 | 0.321 | 0.422 | -0.505 | -0.269 | 0.241 | -0.291 | -0.78 | -0.459
Cc1ccc(NC(=O)c2ccc(CN3CCN(C)CC3)cc2)cc1Nc1nccc(-c2cccnc2)n1 [Imatinib Mesylate (STI571)] | 0.246 | 0.527 | 0.49 | 0.678 | 0.691 | 0.0856 | 0.424 | 0.388 | 1.08 | 0.685 | 0.375 | 0.449 | 1.1 | -0.235 | 0.817 | 0.663 | 0.408 | 0.695 | 0.492 | 1.02
Cc1cc(C)c(/C=C2\C(=O)Nc3ccccc32)[nH]1 [Semaxanib (SU5416)] | 1.01 | 0.655 | 0.765 | 1.09 | 0.866 | 0.584 | 0.825 | 0.56 | 0.889 | 0.924 | 0.706 | 0.565 | 0.894 | 1.02 | 0.525 | 0.922 | 0.571 | 0.999 | 1.06 | 1.22
COc1cc2ncnc(Nc3ccc(F)c(Cl)c3)c2cc1OCCCN1CCOCC1 [Gefitinib (ZD1839)] | -0.0997 | 0.478 | -0.24 | -1.81 | 0.407 | 0.455 | -0.997 | 0.449 | 0.805 | 0.777 | -0.0695 | 0.71 | -0.973 | 0.489 | 0.886 | -0.282 | 0.561 | 0.792 | -0.237 | 1.02
Nc1cc(C(F)(F)F)c(-c2cc(N3CCOCC3)nc(N3CCOCC3)n2)cn1 [BKM120 (NVP-BKM120, Buparlisib)] | -1.15 | -1.17 | -0.966 | -1.08 | -1.63 | -0.376 | -1.51 | -1.78 | -0.734 | -1.91 | -1.44 | -2.14 | -1.14 | -0.758 | -1.07 | -0.955 | -1.88 | -1.83 | -1.37 | -1.12
COc1cc2/c(=N/c3ccc(Br)cc3F)nc[nH]c2cc1OCC1CCN(C)CC1 [Vandetanib (ZD6474)] | -0.882 | 0.813 | -0.0447 | -1.6 | -0.369 | 0.411 | -0.934 | 0.521 | 0.252 | 0.508 | -0.442 | 1.14 | -0.185 | 0.798 | -0.601 | -0.448 | 0.56 | -0.422 | -0.852 | -0.651
CO[C@H]1C[C@@H]2CC[C@@H](C)[C@@](O)(O2)C(=O)C(=O)N2CCCC[C@H]2C(=O)O[C@H]([C@H](C)C[C@@H]2CC[C@@H](O)[C@H](OC)C2)CC(=O)[C@H](C)/C=C(\C)[C@@H](O)[C@@H](OC)C(=O)[C@H](C)C[C@H](C)/C=C/C=C/C=C/1C [Rapamycin (Sirolimus)] | -1.45 | -2.1 | -1.45 | -0.101 | -1.3 | -1.03 | -1.59 | -2.47 | -0.602 | -0.803 | -1.61 | -1.84 | -0.612 | -1.49 | -0.676 | -0.851 | -1.56 | -0.759 | -1.02 | -0.905
O=C1NC(=O)/C(=C/c2ccc3nccc(-c4ccncc4)c3c2)S1 | -2.64 | -2.03 | 0.581 | -1.54 | 0.751 | -1.47 | 0.739 | -2.08 | -1.42 | -1.27 | 0.989 | -2.11 | -1.03 | -0.665 | -0.709 | -0.654 | 0.545 | -1.8 | -1.57 | -1.23
COc1ccc(-c2ccc3ncc4c(c3c2)n(-c2ccc(N3CCNCC3)c(C(F)(F)F)c2)c(=O)n4C)cn1 | -1.86 | -1.99 | -2.1 | -2.05 | -1.98 | -2.33 | -1.87 | -2.1 | -1.66 | -1.81 | -1.71 | -1.66 | -1.55 | -1.9 | -1.19 | -1.58 | -2.15 | -1.61 | -1.91 | -1.25
NC1(Cc2ccc(Cl)cc2)CCN(c2ncnc3[nH]ccc23)CC1 | -0.273 | 0.121 | 0.542 | 0.911 | 0.0461 | 0.639 | -0.623 | 0.169 | 0.721 | 0.786 | 0.448 | 0.241 | -0.175 | 0.484 | 0.476 | 0.378 | 0.69 | -0.103 | 1.14 | 0.964
O=C(c1cccc(Cl)c1F)N1CCN(Cc2cccc(Nc3nccs3)n2)CC1 | -2.42 | -0.913 | -1.32 | -0.412 | 0.0941 | -0.924 | -1.9 | -1.61 | -0.724 | -1.05 | -0.823 | -1.71 | -2.1 | -1.57 | -1.49 | -0.536 | -1.26 | 0.154 | -0.306 | -1.12
Cc1c(Cn2c(C)nc3c(C(=O)O)cc(N4CCOCC4)cc32)cccc1C(F)(F)F | 0.475 | -0.248 | 0.23 | -0.374 | -0.329 | 0.0539 | -0.835 | 0.33 | 0.792 | 0.413 | -0.187 | 0.419 | 0.0332 | 0.157 | 0.131 | 0.582 | 0.297 | 0.51 | 0.147 | -0.155
CC(C)N(CCC(=O)c1ccc2ccccc2c1)Cc1ccccc1 | 0.695 | 0.452 | 0.512 | 0.443 | 1.04 | 0.328 | 0.477 | 0.537 | 0.798 | 0.687 | -0.614 | 0.506 | 0.669 | 0.431 | 1.06 | 0.699 | 0.419 | 0.421 | 0.31 | 0.849
